In PubChem BioAssay AID360 (National Center for Advancing Translational Sciences (NCATS), 2006):
The whole screen tested about 48,000 compounds, of which about 550 (1.1%) were called active. About 4% were inconclusive and are not listed. Cut-off read from the data, not from the text of the source: active = potency below about 15 µM; inconclusive = mostly about 16 µM to 33 µM; inactive = weaker than that. The list shows a part of the results.

molecular target: Lysosomal acid glucosylceramidase (Homo sapiens) (UniProt P04062); assay: Glucocerebrosidase; settings: purified enzyme, resorufin glucoside fluorescence (screen aimed at inhibitors), 20 min;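 note: the screen sought inhibitors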
Chain of UniProt P04062 (P04062 whole entry, looked up): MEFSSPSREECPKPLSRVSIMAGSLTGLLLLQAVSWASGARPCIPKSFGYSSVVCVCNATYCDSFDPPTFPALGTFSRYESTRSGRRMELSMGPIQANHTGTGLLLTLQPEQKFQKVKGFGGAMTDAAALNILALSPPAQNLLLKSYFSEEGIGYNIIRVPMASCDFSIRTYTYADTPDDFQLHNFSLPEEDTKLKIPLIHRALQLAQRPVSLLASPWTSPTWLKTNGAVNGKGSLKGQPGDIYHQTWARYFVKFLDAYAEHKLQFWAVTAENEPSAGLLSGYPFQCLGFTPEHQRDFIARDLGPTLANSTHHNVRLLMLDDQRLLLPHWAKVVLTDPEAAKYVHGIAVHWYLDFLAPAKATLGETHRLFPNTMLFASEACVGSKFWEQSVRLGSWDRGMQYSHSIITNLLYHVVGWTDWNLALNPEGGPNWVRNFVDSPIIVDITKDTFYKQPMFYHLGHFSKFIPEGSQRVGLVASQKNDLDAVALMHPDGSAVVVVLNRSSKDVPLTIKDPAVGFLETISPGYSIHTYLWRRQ
Outline: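 Wild-type enzyme at 0.2 nM final in 50mM citric acid/KH2PO4, 10mM sodium taurocholate, 0.01% tween-20, pH 5.9, with resorufin beta-D-glucopyranoside at 30 uM final. Compounds titrated, 20 min at RT, red fluorescence read; AC50 from titration.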
Potency is the fitted concentration of half-maximal effect.

Row | SMILES | Potency
1 | O=C(NCc1ccc2c(c1)OCO2)c1c(F)c(F)c(F)c(F)c1F | inactive: > 76.9 µM
2 | CCC1CCCCN1C(=O)CSc1nnc(-c2ccc(Cl)s2)o1 (stereo not given) | inactive: > 76.9 µM
3 | O=C(C1CCN(S(=O)(=O)c2cccnc2)CC1)N1CCN(c2ccc(Cl)cc2)CC1 | inactive: > 76.9 µM
4 | CCOC(=O)c1c(C)[nH]c(C(=O)COC(=O)CNC(=O)C2CCCCC2)c1C | inactive: > 76.9 µM
5 | CC(C)c1ccc2oc(=O)cc(CN3CCN(c4ccc(F)cc4)CC3)c2c1 | inactive: > 76.9 µM
6 | Cc1nn(Cc2ccccc2Cl)c(C)c1C(=O)N1CCN(c2ccccc2)CC1 | inactive: > 76.9 µM
7 | CCn1cnc2c1c(=O)n(Cc1nnc3n1-c1ccccc1SC3)c(=O)n2Cc1ccccc1 | inactive: > 76.9 µM
8 | Cc1ccc(C(=O)CSc2nc3cc(S(=O)(=O)N4CCOCC4)ccc3o2)cc1 | inactive: > 76.9 µM
9 | CCCCc1c(O)nc(SCC(=O)c2ccccc2)[nH]c1=O | inactive: > 76.9 µM
10 | Cc1c(Cl)cccc1NC(=O)CSCC(N)=O | inactive: > 76.9 µM
11 | CCN(Cc1cc2ccc(C)cc2[nH]c1=O)C(=O)c1ccncc1 | inactive: > 76.9 µM
12 | O=c1[nH]cnc2scc(-c3ccsc3)c12 | inactive: > 76.9 µM
13 | Cc1cccc(CCNC(=O)CCc2nc(-c3ccccc3F)no2)c1 | inactive: > 76.9 µM
14 | COc1ccc(Cc2nnc(SCC(=O)Nc3ncc(C)s3)o2)cc1 | inactive: > 76.9 µM
15 | CCOC(=O)CNc1nc(-c2ccncc2)nc2ccccc12 | inactive: > 76.9 µM
16 | COc1ccc(C)cc1S(=O)(=O)Nc1ccccc1C | inactive: > 76.9 µM
17 | [O-][n+]1ccc(C2CC2)cc1 | inactive: > 76.9 µM
18 | COc1cc(-c2nc(S(=O)(=O)c3ccc(C)cc3)c(N(C)C)o2)cc(OC)c1OC | inactive: > 76.9 µM
19 | Cc1ccc(C(=O)O)cc1S(=O)(=O)NCC1CCCO1 (stereo not given) | inactive: > 76.9 µM
20 | O=C1CCCN1CCCNc1ncnc2c1[nH]c1ccccc12 | inactive: > 76.9 µM
21 | CCCS(=O)(=O)N1CCC(C(=O)N2CCC(Cc3ccccc3)CC2)CC1 | inactive: > 76.9 µM
22 | Cc1cc(C(=O)Nc2sc(C)c(C)c2C#N)no1 | inactive: > 76.9 µM
23 | O=C(NCC1CCCO1)NC1(C(F)(F)F)Oc2ccccc2O1 (stereo not given) | inactive: > 76.9 µM

Row | SMILES | Potency
24 | COc1cccc(C(=O)Nc2cc(NC(=O)c3ccco3)ccc2OC)c1 | inactive: > 76.9 µM
25 | COc1cccc(C(c2nnnn2Cc2ccccc2)N2CCN(C3CCCC3)CC2)c1OC (stereo not given) | inactive: > 76.9 µM
26 | Cc1ccc(-c2nsc3c(N4CCN(C(=O)c5ccco5)CC4)ncnc23)cc1 | inactive: > 76.9 µM
27 | CC1(C)CC(=O)c2cc(OCC(=O)NCCN3CCCc4ccccc43)ccc2O1 | inactive: > 76.9 µM
28 | Cc1cc(S(=O)(=O)N2CCC(NC(=O)C34CC5CC(CC(C5)C3)C4)CC2)ccc1-n1cnnn1 | inactive: > 76.9 µM
29 | Cc1ccc2nc(Nc3ccc4[nH]c(=O)[nH]c4c3)c(-n3nc(C)cc3C)nc2c1 | inactive: > 76.9 µM
30 | O=C(COC(=O)C1c2ccccc2Oc2ccccc21)Nc1ccc2c(c1)OCO2 | inactive: > 76.9 µM
31 | Cc1cc(NC(=O)c2ccc(NC(=O)C(C)Oc3ccccc3)cc2)no1 (stereo not given) | active: 1.93 µM
32 | COc1ccc(N/C(N)=N/c2nc(CSc3ccc(C)cc3)cc(=O)[nH]2)cc1 | active: 9.71 µM
33 | Cc1ccccc1NS(=O)(=O)c1ccc(OCC(=O)NCc2ccco2)cc1 | inactive: > 76.9 µM
34 | COc1cc(C(=O)Nc2ccc3c(c2)OCCO3)ccc1-n1cnnn1 | inactive: > 76.9 µM
35 | O=C(CNS(=O)(=O)c1ccccc1)N1CCN(c2ccccc2)CC1 | inactive: > 76.9 µM
36 | Cc1ccc(-n2ncc3c(=O)n(CC(=O)Nc4cccc(Cl)c4)cnc32)cc1C | inactive: > 76.9 µM
37 | CCOC(=O)N1CCN(c2c(-c3ccc(C(C)C)cc3)c(=O)c2=O)CC1 | inactive: > 76.9 µM
38 | CCOC(=O)c1ccccc1NC(=O)c1ccc(N(C)S(C)(=O)=O)cc1 | inactive: > 76.9 µM
39 | COc1ccc2[nH]c(=O)c(C(c3nnnn3C3CCCCC3)N3CCN(C)CC3)cc2c1 (stereo not given) | inactive: > 76.9 µM
40 | COC(=O)c1cccc(-n2nnnc2SCC(=O)Nc2nc3c(s2)CCCC3)c1 | inactive: > 76.9 µM
41 | CSc1ccc2[nH]c(=O)cc(C)c2c1 | inactive: > 76.9 µM
42 | COCc1[nH]nc2c1C(c1ccccc1F)C(C#N)=C(N)O2 (stereo not given) | inactive: > 76.9 µM
43 | Cc1ccccc1-c1nnc(-c2ccc(Br)cc2)o1 | inactive: > 76.9 µM
44 | COC(=O)c1ccc(CN(C)S(=O)(=O)c2ccc(C)cc2)o1 | inactive: > 76.9 µM
45 | CCn1nnnc1NCc1cccn1C | inactive: > 76.9 µM
46 | CCOC(=O)C1CCCN(C(=O)c2cnn3c(C(F)F)cc(-c4ccc(C)cc4)nc23)C1 (stereo not given) | inactive: > 76.9 µM

Row | SMILES | Potency
47 | COc1ccc(Oc2nc(C)nc3c2oc2ccccc23)cc1 | inactive: > 76.9 µM
48 | O=C(CCN1CCN(c2ccc(F)cc2)CC1)Nc1ccccc1F | inactive: > 76.9 µM
49 | O=C(NCCc1ccccc1)c1ncn[nH]1 | inactive: > 76.9 µM
50 | O=C(COc1ccc(S(=O)(=O)N2CCCCC2)cc1)NC1CCCCC1 | inactive: > 76.9 µM
51 | COC(=O)Nc1ccc(S(=O)(=O)N2CCCCCC2)cc1 | inactive: > 76.9 µM
52 | O=C(NCCN1CCNCC1)c1ccccn1 | inactive: > 76.9 µM
53 | CS(=O)(=O)c1nc(-c2ccccc2)cc(C(F)(F)F)n1 | inactive: > 76.9 µM
54 | COc1ccc(C2CC(O)(C(C)(C)O)NO2)cc1 (stereo not given) | inactive: > 76.9 µM
55 | Oc1ccccc1-c1nnc(-c2ccc(C(F)(F)F)cc2)o1 | inactive: > 76.9 µM
56 | CC(=O)Nc1cc(NC(=O)C2C3C=CC(C3)C2C(=O)O)ccc1Cl (stereo not given) | inactive: > 76.9 µM
57 | CC(=O)N1c2ccc(S(=O)(=O)CCC(=O)O)cc2CC1C (stereo not given) | inactive: > 76.9 µM
58 | Cc1nc(C)c(C(=O)C2=C(O)C(=O)N(CCN(C)C)C2c2ccccc2)s1 (stereo not given) | inactive: > 76.9 µM
59 | COCC(=O)N(C)c1nnc(-c2cnccn2)s1 | inactive: > 76.9 µM
60 | Cc1ccc(S(=O)(=O)N2CCOCC2)cc1C(=O)Nc1nc(-c2cccnc2)cs1 | inactive: > 76.9 µM
61 | CCC1CCC2(CC1)NC(CO)(CO)CO2 (stereo not given) | inactive: > 76.9 µM
62 | CN1C(=O)CSc2ccc(NC(=O)N3CCC(N4CCCCC4)CC3)cc21 | inactive: > 76.9 µM
63 | CCCC(=O)Nc1ccc(N2CCOCC2)cc1 | inactive: > 76.9 µM
64 | COc1ccc(C(c2nnnn2Cc2ccccc2)N2CCN(c3nc4ccccc4s3)CC2)cc1 (stereo not given) | inactive: > 15.4 µM
65 | CC(C)NS(=O)(=O)c1ccc(CCC(=O)O)cc1 | inactive: > 76.9 µM
66 | COc1ccc(NC(=O)c2cccc(NC(=O)C3C4CC5OC(=O)C3C5C4)c2)c(OC)c1 (stereo not given) | inactive: > 76.9 µM
67 | COc1cccc2cc(C(=O)NCC3CCCO3)c(=O)oc12 (stereo not given) | inactive: > 76.9 µM
68 | O=C(Nc1ccc(Cl)cc1C(=O)Nc1ccccn1)c1ccco1 | inactive: > 76.9 µM
69 | CCOC(=O)c1cc(-c2ccncc2)nc2c1c(C)nn2-c1ccccn1 | inactive: > 76.9 µM

Row | SMILES | Potency
70 | COc1ccccc1CNC(=O)CN1C(=O)C(C)N(c2ccc(C)cc2)C1=O (stereo not given) | inactive: > 76.9 µM
71 | O=C(CNS(=O)(=O)c1cccc2nsnc12)NCc1ccc(Cl)cc1 | inactive: > 76.9 µM
72 | C=CCSc1nnc2c(n1)OC=Nc1ccc(Br)cc1-2 | inactive: > 76.9 µM
73 | CC(=O)C1=C(O)C(=O)N(C2CCCCC2)C1c1ccccc1 (stereo not given) | inactive: > 76.9 µM
74 | O=C(NC1(C(F)(F)F)N=C2SCCN2C1=O)c1ccco1 (stereo not given) | inactive: > 76.9 µM
75 | COC(=O)c1cc(Br)c(=O)n(CCC2=CCCCC2)c1 | inactive: > 76.9 µM
76 | Cc1ccc2c(c1)cc(CN(Cc1ccco1)S(=O)(=O)c1ccccc1)c1nnnn12 | inactive: > 76.9 µM
77 | CC(=O)CCCCn1c(=O)c2c(ncn2C)n(C)c1=O | inactive: > 76.9 µM
78 | COc1ccc2c(c1)CCc1c(C(=O)N3CCCC3)noc1-2 | inactive: > 76.9 µM
79 | CCCN(CCO)Cc1ccc(Cl)c(Cl)c1 | inactive: > 76.9 µM
80 | O=C(CCSc1nnc2scc(-c3ccccc3)n12)NCc1ccc2c(c1)OCO2 | inactive: > 76.9 µM
81 | O=C(CSc1nnc(Cc2cc(=O)[nH]c(=O)[nH]2)n1-c1ccccc1)N1CCCc2ccccc21 | inactive: > 76.9 µM
82 | Cc1cc(NC(=O)CCC(=O)N(c2ccc(F)cc2)C(C(=O)NC2CCCC2)c2ccncc2)no1 (stereo not given) | inactive: > 76.9 µM
83 | Cc1cc(C(F)(F)F)c(C#N)c(SCC(=O)NC(C)(C)C)n1 | inactive: > 76.9 µM
84 | O=S(=O)(CCn1cccc1)CCn1cccc1 | inactive: > 76.9 µM
85 | O=C1CCCN1CCCn1cnc2c([nH]c3ccc(F)cc32)c1=O | inactive: > 76.9 µM
86 | CCOc1ccc(CNC(=O)CCn2c(=O)oc3ccccc32)cc1 | inactive: > 76.9 µM
87 | CC(C)CCNC(=O)C(C)N(Cc1ccc(F)cc1)C(=O)c1ccc(CN2CCCCC2)o1 (stereo not given) | inactive: > 76.9 µM
88 | COCCn1c(-c2ccc(OC)c(OC)c2)nc2ccccc21 | inactive: > 76.9 µM
89 | c1cnc(NCCNc2ncccn2)nc1 | inactive: > 76.9 µM
90 | Cn1nc(C(=O)N2CCOCC2)c2ccccc2c1=O | inactive: > 76.9 µM
